# Assay results taken from the supplement of paper PMC8728848.
# This is one part of the list.
# B1: LecB PA7 (Pseudomonas aeruginosa) (protein)
# chain: MATQGVFTLPANTRFGVTAFANSSATQTVKVLVNNETAATFTGQSTNNAVIGSQVLNSGGGGKVQIQVSVNGRSSDLVSAQVILANELNVALVGSEDSTDNDYNDAVVVINWPLG
# How the values were obtained:
# Assay in all cases: glycan array binding signal (z-score within array); higher = stronger binding
# Conditions in all cases: glycan notation: IUPAC condensed, linker removed
# [1] = target: GlcNAc(b1-2)Gal(b1-3)GalNAc
# In short: (§1)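 Arrays were curated from the Consortium for Functional Glycomics database, 3228 in total, and kept only where the protein sequence was available. Binding is expressed as a within-array Z-score. This score was averaged across arrays of the same protein sequence at different concentrations or buffers and across linkers, and negative values can be read as non-binding.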
# [2] = target: GlcNAc(b1-2)Man(a1-3)[GlcNAc(b1-2)Man(a1-6)]Man(b1-4)GlcNAc(b1-4)GlcNAc
# In short: as §1
# [3] = target: GlcNAc(b1-2)Man(a1-3)[GlcNAc(b1-2)Man(a1-6)]Man(b1-4)GlcNAc(b1-4)[Fuc(a1-6)]GlcNAc
# In short: as §1
# [4] = target: GlcNAc(b1-2)Man(a1-3)[GlcNAc(b1-4)][GlcNAc(b1-2)Man(a1-6)]Man(b1-4)GlcNAc(b1-4)GlcNAc
# In short: as §1
# [5] = target: GlcNAc(b1-2)Man(a1-3)[GlcNAc(b1-4)][GlcNAc(b1-2)Man(a1-6)]Man(b1-4)GlcNAc(b1-4)[Fuc(a1-6)]GlcNAc
# In short: as §1
# [6] = target: GlcNAc(b1-2)[GlcNAc(b1-4)]Man(a1-3)[GlcNAc(b1-2)Man(a1-6)]Man(b1-4)GlcNAc(b1-4)GlcNAc
# In short: as §1
# [7] = target: GlcNAc(b1-2)[GlcNAc(b1-4)]Man(a1-3)[GlcNAc(b1-4)][GlcNAc(b1-2)Man(a1-6)]Man(b1-4)GlcNAc(b1-4)GlcNAc
# In short: as §1
# [8] = target: GlcNAc(b1-2)[GlcNAc(b1-4)]Man(a1-3)[GlcNAc(b1-4)][GlcNAc(b1-2)[GlcNAc(b1-6)]Man(a1-6)]Man(b1-4)GlcNAc(b1-4)GlcNAc
# In short: as §1
# [9] = target: GlcNAc(b1-2)[GlcNAc(b1-4)]Man(a1-3)[GlcNAc(b1-4)][GlcNAc(b1-2)[GlcNAc(b1-6)]Man(a1-6)]Man(b1-4)GlcNAc(b1-4)[Fuc(a1-6)]GlcNAc
# In short: as §1
# [10] = target: GlcNAc(b1-2)[GlcNAc(b1-6)]Man(a1-6)[GlcNAc(b1-2)Man(a1-3)]Man(b1-4)GlcNAc(b1-4)GlcNAc
# In short: as §1
# [11] = target: GlcNAc(b1-2)[GlcNAc(b1-6)]Man(a1-6)[GlcNAc(b1-2)Man(a1-3)]Man(b1-4)GlcNAc(b1-4)[Fuc(a1-6)]GlcNAc
# In short: as §1
# [12] = target: GlcNAc(b1-2)[GlcNAc(b1-6)]Man(a1-6)[GlcNAc(b1-4)][GlcNAc(b1-2)Man(a1-3)]Man(b1-4)GlcNAc(b1-4)GlcNAc
# In short: as §1
# GlcNAc(b1-3)Fuc = target: GlcNAc(b1-3)Fuc
# In short: as §1
# GlcNAc(b1-3)Gal = target: GlcNAc(b1-3)Gal
# In short: as §1
# [13] = target: GlcNAc(b1-3)Gal(b1-3)GalNAc
# In short: as §1
# GlcNAc(b1-3)Gal(b1-4)Glc = target: GlcNAc(b1-3)Gal(b1-4)Glc
# In short: as §1
# [14] = target: GlcNAc(b1-3)Gal(b1-4)GlcNAc
# In short: as §1
# [15] = target: GlcNAc(b1-3)Gal(b1-4)GlcNAc(b1-2)Man(a1-3)[GlcNAc(b1-3)Gal(b1-4)GlcNAc(b1-2)Man(a1-6)]Man(b1-4)GlcNAc(b1-4)GlcNAc
# In short: as §1
# [16] = target: GlcNAc(b1-3)Gal(b1-4)GlcNAc(b1-2)Man(a1-3)[GlcNAc(b1-3)Gal(b1-4)GlcNAc(b1-2)Man(a1-6)]Man(b1-4)GlcNAc(b1-4)[Fuc(a1-6)]GlcNAc
# In short: as §1
# [17] = target: GlcNAc(b1-3)Gal(b1-4)GlcNAc(b1-2)[GlcNAc(b1-3)Gal(b1-4)GlcNAc(b1-6)]Man(a1-6)[GlcNAc(b1-3)Gal(b1-4)GlcNAc(b1-2)Man(a1-3)]Man(b1-4)GlcNAc(b1-4)GlcNAc
# In short: as §1
# [18] = target: GlcNAc(b1-3)Gal(b1-4)GlcNAc(b1-3)Gal(b1-4)GlcNAc
# In short: as §1
# [19] = target: GlcNAc(b1-3)Gal(b1-4)GlcNAc(b1-3)Gal(b1-4)GlcNAc(b1-2)Man(a1-3)[GlcNAc(b1-3)Gal(b1-4)GlcNAc(b1-3)Gal(b1-4)GlcNAc(b1-2)Man(a1-6)]Man(b1-4)GlcNAc(b1-4)GlcNAc
# In short: as §1
# [20] = target: GlcNAc(b1-3)Gal(b1-4)GlcNAc(b1-3)Gal(b1-4)GlcNAc(b1-2)Man(a1-3)[GlcNAc(b1-3)Gal(b1-4)GlcNAc(b1-3)Gal(b1-4)GlcNAc(b1-2)Man(a1-6)]Man(b1-4)GlcNAc(b1-4)[Fuc(a1-6)]GlcNAc
# In short: as §1
# [21] = target: GlcNAc(b1-3)Gal(b1-4)GlcNAc(b1-3)Gal(b1-4)GlcNAc(b1-2)[GlcNAc(b1-3)Gal(b1-4)GlcNAc(b1-3)Gal(b1-4)GlcNAc(b1-6)]Man(a1-6)[GlcNAc(b1-3)Gal(b1-4)GlcNAc(b1-3)Gal(b1-4)GlcNAc(b1-2)Man(a1-3)]Man(b1-4)GlcNAc(b1-4)[Fuc(a1-6)]GlcNAc
# In short: as §1
# [22] = target: GlcNAc(b1-3)Gal(b1-4)GlcNAc(b1-3)Gal(b1-4)GlcNAc(b1-3)Gal(b1-4)GlcNAc(b1-2)Man(a1-3)[GlcNAc(b1-3)Gal(b1-4)GlcNAc(b1-3)Gal(b1-4)GlcNAc(b1-3)Gal(b1-4)GlcNAc(b1-2)Man(a1-6)]Man(b1-4)GlcNAc(b1-4)GlcNAc
# In short: as §1
# [23] = target: GlcNAc(b1-3)Gal(b1-4)GlcNAc(b1-3)Gal(b1-4)GlcNAc(b1-3)Gal(b1-4)GlcNAc(b1-2)Man(a1-3)[GlcNAc(b1-3)Gal(b1-4)GlcNAc(b1-3)Gal(b1-4)GlcNAc(b1-3)Gal(b1-4)GlcNAc(b1-2)Man(a1-6)]Man(b1-4)GlcNAc(b1-4)[Fuc(a1-6)]GlcNAc
# In short: as §1
# [24] = target: GlcNAc(b1-3)Gal(b1-4)GlcNAc(b1-3)Gal(b1-4)GlcNAc(b1-3)Gal(b1-4)GlcNAc(b1-2)[GlcNAc(b1-3)Gal(b1-4)GlcNAc(b1-3)Gal(b1-4)GlcNAc(b1-3)Gal(b1-4)GlcNAc(b1-6)]Man(a1-6)[GlcNAc(b1-3)Gal(b1-4)GlcNAc(b1-3)Gal(b1-4)GlcNAc(b1-3)Gal(b1-4)GlcNAc(b1-2)Man(a1-3)]Man(b1-4)GlcNAc(b1-4)[Fuc(a1-6)]GlcNAc
# In short: as §1
# [25] = target: GlcNAc(b1-3)Gal(b1-4)GlcNAc(b1-3)Gal(b1-4)GlcNAc(b1-3)Gal(b1-4)GlcNAc(b1-3)Gal(b1-4)GlcNAc(b1-2)Man(a1-3)[GlcNAc(b1-3)Gal(b1-4)GlcNAc(b1-3)Gal(b1-4)GlcNAc(b1-3)Gal(b1-4)GlcNAc(b1-3)Gal(b1-4)GlcNAc(b1-2)Man(a1-6)]Man(b1-4)GlcNAc(b1-4)GlcNAc
# In short: as §1
# [26] = target: GlcNAc(b1-3)Gal(b1-4)GlcNAc(b1-3)Gal(b1-4)GlcNAc(b1-3)Gal(b1-4)GlcNAc(b1-3)Gal(b1-4)GlcNAc(b1-2)Man(a1-3)[GlcNAc(b1-3)Gal(b1-4)GlcNAc(b1-3)Gal(b1-4)GlcNAc(b1-3)Gal(b1-4)GlcNAc(b1-3)Gal(b1-4)GlcNAc(b1-2)Man(a1-6)]Man(b1-4)GlcNAc(b1-4)[Fuc(a1-6)]GlcNAc
# In short: as §1
# [27] = target: GlcNAc(b1-3)Gal(b1-4)GlcNAc(b1-3)Gal(b1-4)GlcNAc(b1-3)Gal(b1-4)GlcNAc(b1-3)Gal(b1-4)GlcNAc(b1-2)[GlcNAc(b1-3)Gal(b1-4)GlcNAc(b1-3)Gal(b1-4)GlcNAc(b1-3)Gal(b1-4)GlcNAc(b1-3)Gal(b1-4)GlcNAc(b1-6)]Man(a1-6)[GlcNAc(b1-3)Gal(b1-4)GlcNAc(b1-3)Gal(b1-4)GlcNAc(b1-3)Gal(b1-4)GlcNAc(b1-3)Gal(b1-4)GlcNAc(b1-2)Man(a1-3)]Man(b1-4)GlcNAc(b1-4)[Fuc(a1-6)]GlcNAc
# In short: as §1
# [28] = target: GlcNAc(b1-3)Gal(b1-4)GlcNAc(b1-3)Gal(b1-4)GlcNAc(b1-3)GalNAc
# In short: as §1
# [29] = target: GlcNAc(b1-3)Gal(b1-4)GlcNAc(b1-3)GalNAc
# In short: as §1
# [30] = target: GlcNAc(b1-3)Gal(b1-4)GlcNAc(b1-3)[GlcNAc(b1-3)Gal(b1-4)GlcNAc(b1-3)]GalNAc
# In short: as §1
# [31] = target: GlcNAc(b1-3)Gal(b1-4)GlcNAc(b1-6)[Gal(b1-3)]GalNAc
# In short: as §1
# [32] = target: GlcNAc(b1-3)Gal(b1-4)GlcNAc(b1-6)[GlcNAc(b1-3)Gal(b1-3)]GalNAc
# In short: as §1
# [33] = target: GlcNAc(b1-3)Gal(b1-4)GlcNAc(b1-6)[GlcNAc(b1-3)]Gal(b1-4)GlcNAc
# In short: as §1
# GlcNAc(b1-3)GalNAc = target: GlcNAc(b1-3)GalNAc
# In short: as §1
# GlcNAc(b1-3)Man = target: GlcNAc(b1-3)Man
# In short: as §1
# [34] = target: GlcNAc(b1-3)[GlcNAc(b1-4)][GlcNAc(b1-6)]GlcNAc
# In short: as §1
# [35] = target: GlcNAc(b1-3)[GlcNAc(b1-6)]Gal(b1-4)GlcNAc
# In short: as §1
# [36] = target: GlcNAc(b1-3)[GlcNAc(b1-6)]GalNAc
# In short: as §1
# [37] = target: GlcNAc(b1-4)Gal(b1-4)GlcNAc
# In short: as §1
# GlcNAc(b1-4)GlcNAc = target: GlcNAc(b1-4)GlcNAc
# In short: as §1
# [38] = target: GlcNAc(b1-4)GlcNAc(b1-4)GlcNAc
# In short: as §1
# [39] = target: GlcNAc(b1-4)GlcNAc(b1-4)GlcNAc(b1-4)GlcNAc(b1-4)GlcNAc
# In short: as §1
binder,measurement,setting,value
B1,glycan array binding signal (z-score),[1],-0.505
same,glycan array binding signal (z-score),[2],-0.477
same,glycan array binding signal (z-score),[3],-0.112
same,glycan array binding signal (z-score),[4],-0.496
same,glycan array binding signal (z-score),[5],0.118
same,glycan array binding signal (z-score),[6],-0.401
same,glycan array binding signal (z-score),[7],-0.511
same,glycan array binding signal (z-score),[8],-0.5
same,glycan array binding signal (z-score),[9],0.171
same,glycan array binding signal (z-score),[10],-0.394
same,glycan array binding signal (z-score),[11],0.727
same,glycan array binding signal (z-score),[12],-0.491
same,glycan array binding signal (z-score),GlcNAc(b1-3)Fuc,0.279
same,glycan array binding signal (z-score),GlcNAc(b1-3)Gal,-0.502
same,glycan array binding signal (z-score),[13],-0.504
same,glycan array binding signal (z-score),GlcNAc(b1-3)Gal(b1-4)Glc,-0.505
same,glycan array binding signal (z-score),[14],-0.511
same,glycan array binding signal (z-score),[15],-0.495
same,glycan array binding signal (z-score),[16],0.561
same,glycan array binding signal (z-score),[17],-0.363
same,glycan array binding signal (z-score),[18],-0.503
same,glycan array binding signal (z-score),[19],-0.486
same,glycan array binding signal (z-score),[20],0.372
same,glycan array binding signal (z-score),[21],0.017
same,glycan array binding signal (z-score),[22],-0.467
same,glycan array binding signal (z-score),[23],0.235
same,glycan array binding signal (z-score),[24],-0.081
same,glycan array binding signal (z-score),[25],-0.473
same,glycan array binding signal (z-score),[26],0.402
same,glycan array binding signal (z-score),[27],0.048
same,glycan array binding signal (z-score),[28],-0.51
same,glycan array binding signal (z-score),[29],-0.495
same,glycan array binding signal (z-score),[30],-0.496
same,glycan array binding signal (z-score),[31],-0.516
same,glycan array binding signal (z-score),[32],-0.505
same,glycan array binding signal (z-score),[33],-0.51
same,glycan array binding signal (z-score),GlcNAc(b1-3)GalNAc,-0.506
same,glycan array binding signal (z-score),GlcNAc(b1-3)Man,-0.39
same,glycan array binding signal (z-score),[34],-0.499
same,glycan array binding signal (z-score),[35],-0.516
same,glycan array binding signal (z-score),[36],-0.512
same,glycan array binding signal (z-score),[37],-0.495
same,glycan array binding signal (z-score),GlcNAc(b1-4)GlcNAc,-0.486
same,glycan array binding signal (z-score),[38],-0.497
same,glycan array binding signal (z-score),[39],-0.494
